Results reported in the BET-seq Pho4 binding data (Le et al. 2018).
This is one part of the list. The energies were worked out here from pooled read counts, against the library average; single values are noisy.

Target: T1, Pho4 (S. cerevisiae) (UniProt P07270)
T1 sequence: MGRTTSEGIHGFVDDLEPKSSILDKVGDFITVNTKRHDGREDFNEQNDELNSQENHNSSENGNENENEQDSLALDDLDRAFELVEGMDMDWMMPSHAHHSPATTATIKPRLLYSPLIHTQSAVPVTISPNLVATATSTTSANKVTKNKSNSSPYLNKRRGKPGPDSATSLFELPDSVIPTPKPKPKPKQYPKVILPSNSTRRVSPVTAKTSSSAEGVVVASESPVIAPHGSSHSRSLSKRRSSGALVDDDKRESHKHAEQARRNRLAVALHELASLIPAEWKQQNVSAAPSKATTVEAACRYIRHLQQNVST
Assay: relative binding free energy (BET-seq); higher = weaker binding
Details: reference: library average

Row | Sequence | relative binding free energy
1 | TTAAACACGTGATTAT | 0.15 kcal/mol
2 | AGGTACACGTGGGTCG | 0.01 kcal/mol
3 | TTTCTCACGTGGTGTA | 0.11 kcal/mol
4 | CTCTGCACGTGGTGTT | -0.16 kcal/mol
5 | AGGGGCACGTGATCGT | -0.09 kcal/mol
6 | AAGTGCACGTGGAGTA | -0.11 kcal/mol
7 | TGTGTCACGTGGCTGT | -0.09 kcal/mol
8 | TGCTACACGTGAATGT | 0.4 kcal/mol
9 | GTAAACACGTGGTGGT | -0.01 kcal/mol
10 | GTTTGCACGTGCGATT | -0.06 kcal/mol
11 | AGGTGCACGTGCTTCG | -0.12 kcal/mol
12 | TTCATCACGTGTTGTT | 0.16 kcal/mol
13 | GATTGCACGTGGAGAG | 0.18 kcal/mol
14 | CGTTTCACGTGGCAGG | 0.21 kcal/mol
15 | GCTGTCACGTGGATGA | 0.21 kcal/mol
16 | GGAGTCACGTGTAAAG | 0.26 kcal/mol
17 | ATTTTCACGTGTGAAA | 0.13 kcal/mol
18 | CGGATCACGTGTTAGT | 0.13 kcal/mol
19 | GAATGCACGTGTAGCG | 0.12 kcal/mol
20 | AGGTACACGTGGGCGC | -0.18 kcal/mol
21 | TATTACACGTGATGTC | 0.4 kcal/mol
22 | TTATCCACGTGTTTCT | 0.09 kcal/mol
23 | CGCAGCACGTGGTGGC | -0.01 kcal/mol

Row | Sequence | relative binding free energy
24 | AGGAACACGTGTGGGT | 0.14 kcal/mol
25 | TATAGCACGTGTGGTG | -0.12 kcal/mol
26 | TTTGCCACGTGTTGAC | 0.15 kcal/mol
27 | TAAGTCACGTGATAGG | 0.21 kcal/mol
28 | TTAACCACGTGGTATG | -0.1 kcal/mol
29 | TTATGCACGTGGGAGG | -0.04 kcal/mol
30 | GAGGGCACGTGGGAAT | 0.01 kcal/mol
31 | ATATACACGTGGTGCA | -0.05 kcal/mol
32 | TTGACCACGTGGGTTA | -0.17 kcal/mol
33 | TCGTACACGTGAGGGT | 0.31 kcal/mol
34 | TGGAGCACGTGCGTGC | -0.17 kcal/mol
35 | GAATGCACGTGTGGGC | 0.07 kcal/mol
36 | TTTAACACGTGGTACT | -0.02 kcal/mol
37 | TGTTACACGTGGTGCC | 0.03 kcal/mol
38 | TACAACACGTGTTGGG | 0.04 kcal/mol
39 | TGTGACACGTGTAAAA | 0.3 kcal/mol
40 | TCTTGCACGTGTATGC | 0.03 kcal/mol
41 | AGTTACACGTGTCATT | 0.26 kcal/mol
42 | AAATTCACGTGAGTTT | 0.38 kcal/mol
43 | TTGTCCACGTGTTTTG | 0.08 kcal/mol
44 | ATTAGCACGTGTGGGA | 0.03 kcal/mol
45 | TGGGTCACGTGACTTC | 0.4 kcal/mol
46 | TTATGCACGTGTTCGG | -0.07 kcal/mol

Row | Sequence | relative binding free energy
47 | GTTAGCACGTGAAGGG | 0.36 kcal/mol
48 | TTTTTCACGTGGAAAT | 0.36 kcal/mol
49 | TTGATCACGTGGACGG | 0.11 kcal/mol
50 | TTGTACACGTGCGGTA | 0.04 kcal/mol
51 | GGGCGCACGTGGTGAA | -0.12 kcal/mol
52 | CGATGCACGTGAGGAT | 0.34 kcal/mol
53 | GGGTCCACGTGGTTGG | 0.01 kcal/mol
54 | CATGGCACGTGCAGTG | 0 kcal/mol
55 | AGGAGCACGTGTGTAG | -0.04 kcal/mol
56 | AGAAGCACGTGGTAGT | -0.11 kcal/mol
57 | GGTTGCACGTGGGCCT | -0.17 kcal/mol
58 | GGGGTCACGTGGCTCT | 0.05 kcal/mol
59 | TTGTTCACGTGAGCTA | 0.35 kcal/mol
60 | ATAGGCACGTGAGGCG | 0.07 kcal/mol
61 | ACTTGCACGTGTAGGG | -0.01 kcal/mol
62 | AGAGGCACGTGGGATA | -0.22 kcal/mol
63 | AGATGCACGTGTGTTA | 0 kcal/mol
64 | TAGTCCACGTGAATGG | 0.3 kcal/mol
65 | ATTCTCACGTGGTCGT | 0.11 kcal/mol
66 | AGCTACACGTGGGGGA | -0.17 kcal/mol
67 | CGTGGCACGTGTGCAT | -0.11 kcal/mol
68 | TGCGACACGTGTGATG | 0.14 kcal/mol
69 | CGGGACACGTGTAGGA | 0.1 kcal/mol

Row | Sequence | relative binding free energy
70 | GCATTCACGTGGTATT | 0.23 kcal/mol
71 | TTGAGCACGTGAATTT | 0.32 kcal/mol
72 | TTGTGCACGTGAATCT | 0.19 kcal/mol
73 | TAGTGCACGTGTGAAG | -0.01 kcal/mol
74 | TGTGGCACGTGATGGG | 0.02 kcal/mol
75 | CTTTACACGTGGTTGA | 0.05 kcal/mol
76 | GAGGGCACGTGGTCCG | -0.19 kcal/mol
77 | TTGGGCACGTGTGTCT | -0.13 kcal/mol
78 | AGAGTCACGTGTGGCG | 0.17 kcal/mol
79 | TCAGTCACGTGAGTTA | 0.24 kcal/mol
80 | TGCAACACGTGAGGTT | 0.18 kcal/mol
81 | GTTACCACGTGTAATT | 0.29 kcal/mol
82 | AGTAGCACGTGAGGGG | 0.21 kcal/mol
83 | AGTGTCACGTGCATAG | -0.02 kcal/mol
84 | AGGGGCACGTGTTATA | -0.2 kcal/mol
85 | CAGCTCACGTGGGTGG | 0.05 kcal/mol
86 | GGGTTCACGTGGCGGC | 0.4 kcal/mol
87 | CTGGCCACGTGAGGTG | 0.18 kcal/mol
88 | TTAAACACGTGATTGG | -0.07 kcal/mol
89 | AATTGCACGTGTGGCT | -0.05 kcal/mol
90 | CTGAGCACGTGTAGTT | 0.13 kcal/mol
91 | CGGTACACGTGTTTGG | 0.06 kcal/mol
92 | TGTTACACGTGGGGAC | -0.07 kcal/mol

Row | Sequence | relative binding free energy
93 | ATCAGCACGTGAGTTT | 0.21 kcal/mol
94 | GTCTTCACGTGGATTT | 0.2 kcal/mol
95 | TGTGCCACGTGCTGAG | -0.04 kcal/mol
96 | GGTGACACGTGCGTTT | -0.01 kcal/mol
97 | GGCTGCACGTGGTAGT | 0.02 kcal/mol
98 | ATAATCACGTGGGCTT | 0.13 kcal/mol
99 | GTGACCACGTGGTGGG | -0.1 kcal/mol
100 | TTGTTCACGTGCTAGG | 0.26 kcal/mol
101 | GCAGGCACGTGGGGCA | -0.26 kcal/mol
102 | GTTTCCACGTGGTTGA | -0.02 kcal/mol
103 | GATTTCACGTGCGGTG | 0.19 kcal/mol
104 | AGTTTCACGTGATGCT | 0.3 kcal/mol
105 | CTATGCACGTGGGGGG | -0.19 kcal/mol
106 | TTATTCACGTGCGTTT | 0.22 kcal/mol
107 | AAGTTCACGTGCTTGT | 0.2 kcal/mol
108 | GGTAGCACGTGGGCGT | -0.07 kcal/mol
109 | CGTGACACGTGGGGAA | -0.02 kcal/mol
110 | GTAACCACGTGGGTTG | -0.24 kcal/mol
111 | GGGGGCACGTGGATTG | -0.04 kcal/mol
112 | CTTATCACGTGTGGAG | 0.18 kcal/mol
113 | TGCGACACGTGGGGCA | -0.1 kcal/mol
114 | CGTATCACGTGGGCTG | 0.06 kcal/mol
115 | TAGTACACGTGGGGTC | -0.05 kcal/mol
